According to PubChem BioAssay AID360 (National Center for Advancing Translational Sciences (NCATS), 2006):
In all, about 48,000 compounds went through this assay and about 550 (1.1%) were called active. About 4% were inconclusive and are not listed. No stated cut-off is given here; in the data, active means potency below about 15 µM; inconclusive means mostly about 16 µM to 33 µM; inactive means weaker than that. The list shows a part of the results.

Target: Lysosomal acid glucosylceramidase (Homo sapiens) (UniProt P04062)
Sequence of UniProt P04062 (P04062 whole entry, looked up): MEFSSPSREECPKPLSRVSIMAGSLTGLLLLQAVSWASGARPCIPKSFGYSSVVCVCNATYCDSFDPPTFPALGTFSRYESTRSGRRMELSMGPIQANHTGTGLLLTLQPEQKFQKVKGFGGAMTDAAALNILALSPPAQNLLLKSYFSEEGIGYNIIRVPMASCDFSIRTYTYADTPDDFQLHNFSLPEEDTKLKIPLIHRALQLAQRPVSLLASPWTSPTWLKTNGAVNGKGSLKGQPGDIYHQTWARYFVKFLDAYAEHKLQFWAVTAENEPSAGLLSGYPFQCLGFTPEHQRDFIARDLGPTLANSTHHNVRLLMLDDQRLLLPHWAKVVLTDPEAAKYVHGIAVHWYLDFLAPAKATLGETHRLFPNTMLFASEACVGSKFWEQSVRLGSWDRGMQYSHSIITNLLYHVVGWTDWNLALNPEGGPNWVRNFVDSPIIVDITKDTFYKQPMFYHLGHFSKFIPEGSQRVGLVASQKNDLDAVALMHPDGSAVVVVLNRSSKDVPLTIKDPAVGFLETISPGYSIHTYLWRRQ
Assay: Glucocerebrosidase;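 further: the screen sought inhibitors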
Conditions: purified enzyme, resorufin glucoside fluorescence (screen aimed at inhibitors), 20 min; series mostly up to 77 µM
In short: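 Normal human glucocerebrosidase (0.2 nM final) was assayed with resorufin β-D-glucopyranoside (30 uM final) in 50mM citric acid/KH2PO4, 10mM sodium taurocholate, 0.01% tween-20, pH 5.9. Compounds were titrated; fluorescence (Ex 548, Em 600) read after 20 min at RT.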
Potency means the concentration at half of the fitted maximal effect.

Potency, inactive:
Cc1ccc(C)c(/C(O)=C2/C(=O)C(=O)N(CCN3CCOCC3)C2c2ccc(C)o2)c1 (stereo not drawn) > 76.9 µM
Cc1ccc(-n2ncc3c2ncn2c(-c4ccncc4)nnc32)cc1 > 76.9 µM
CNC(=O)N(C1=NCC(C)S1)c1ccc(F)cc1F (stereo not drawn) > 76.9 µM
COc1ccc(C(=O)Nc2c3c(nn2-c2cccc(Cl)c2)CS(=O)C3)cc1 (stereo not drawn) > 76.9 µM
CCOC(=O)C1C(=O)CC(=O)CC1CC(C)SCC (stereo not drawn) > 76.9 µM
CCCOP(=O)(c1ccc(N(C)C)cc1)C(O)c1ccncc1 (stereo not drawn) > 76.9 µM
O=C(c1ccc(COc2ccc(F)cc2)o1)n1cccn1 > 76.9 µM
COCCn1nnnc1CN1CCC(NC(=O)Nc2cccc(OC)c2)CC1 > 76.9 µM
CC1(C)CC(=O)C2=C(C1)Oc1ncn(CCO)c(=N)c1C2c1ccccc1 (stereo not drawn) > 76.9 µM
CC(C)N=C1SCC(C)(/C=N/O)S1 (stereo not drawn) > 76.9 µM
CCOC(=O)c1ccc(N=c2sc(C(=O)OC)cc(=O)n2C2CC2)cc1 > 76.9 µM
c1ccc(CSc2nnc(-c3ccco3)n2Cc2ccccc2)cc1 > 76.9 µM
Cn1c(=O)c2c(nc(CN3CCN(c4ccc(F)cc4)CC3)n2Cc2ccccc2F)n(C)c1=O > 76.9 µM
CC1CCCCC1NC(=O)CCS(=O)(=O)c1cccc2nonc12 (stereo not drawn) > 76.9 µM
Cc1nn(C)c(C)c1NC(=O)c1ccc(S(=O)(=O)N(C)C)cc1 > 76.9 µM
CN(C)/C=N/c1c(C(=O)NCc2ccccc2)nnn1Cc1ccccc1 > 76.9 µM
CCCCN(C)CCCNC(=O)Cn1c(=O)sc2ccccc21 > 76.9 µM
COc1cccc(OC)c1C(=O)N1CCN(c2ccccn2)CC1 > 76.9 µM
COc1ccccc1Oc1ccc2c(c1)C(=O)N(c1ccc(O)cc1)C2=O > 76.9 µM
O=c1[nH]cnc2c1nc(SCc1ccccc1)n2C1OC(CO)C(O)C1O (stereo not drawn) > 76.9 µM
CC1CN(C(=O)c2cc(S(=O)(=O)N3CCCC3)c(Cl)cc2Cl)CC(C)O1 (stereo not drawn) > 76.9 µM
O=C(NC1CCCCC1)Sc1ccc(Cl)cc1 > 76.9 µM
Cc1nn(Cc2ccccc2)c(C)c1NC(=O)c1cc2nc(-c3ccco3)cc(C(F)(F)F)n2n1 > 76.9 µM
Cc1nc(NC(=O)CSc2ccccc2N)sc1C > 76.9 µM
CCOC(=O)C1CCCN(C(=O)c2cc(-c3ccc(C)cc3)on2)C1 (stereo not drawn) > 76.9 µM
CC(NS(=O)(=O)c1ccccc1)C(N)=O (stereo not drawn) > 76.9 µM
CC(C)C(c1nnnn1Cc1ccco1)N1CCN(c2cccc(Cl)c2)CC1 (stereo not drawn) > 76.9 µM
CC1(C)CC(=O)c2cc(C(=O)N3CCCCC3)c(=O)n(-c3ccc(Cl)cc3)c2C1 > 76.9 µM
CCOC(=O)C1(Nc2nccs2)Sc2ccccc2NC1=O (stereo not drawn) > 76.9 µM
CCOc1cc(-c2noc(N)c2C(=O)OC)cc(OCC)c1OCC > 76.9 µM
O=P1(c2ccccc2)C=Cn2c1cc1c2CCCC1 (stereo not drawn) > 76.9 µM
COc1ccc(CN2CCN(C(=O)c3ccco3)CC2)cc1 > 76.9 µM
COc1ccc(S(=O)(=O)N2CCN(C(=O)CCC3CCCC3)CC2)cc1 > 76.9 µM
CN(c1ccc(OCC(=O)N2CCCCC2)cc1)S(=O)(=O)c1cccs1 > 76.9 µM
O=C(CSc1nnc2sc3ccccc3n12)N1CCN(c2ccccc2)CC1 > 76.9 µM
NC(=O)CN1C(=O)C2CCCCN2C(=O)c2ccccc21 (stereo not drawn) > 76.9 µM
CCn1c(N2CCC(Cc3ccccc3)CC2)nc2c1c(=O)[nH]c(=O)n2C > 76.9 µM
CCOc1ccc(NC(=O)CSc2nc3cccnc3n2CC)cc1 > 76.9 µM
Cc1sc(NC(=O)CSc2nc(N)n(CC(=O)c3ccccc3)n2)c(C#N)c1C > 76.9 µM
CCOC(=O)C(C#N)C(c1cccnc1)c1c(C)[nH][nH]c1=O (stereo not drawn) > 76.9 µM
COc1cccc(Nc2c(F)c(OC)c(F)c(F)c2C(=O)O)c1 > 76.9 µM
CCCn1nnc(NC(=O)c2ccccc2Cl)n1 > 76.9 µM
COc1cccc(CNC(=O)Cn2cccc2)c1 > 76.9 µM
Cc1ccc(S(=O)(=O)NC2(C(F)(F)F)C(=O)Nc3c2c(=O)n(C)c(=O)n3C)cc1 (stereo not drawn) > 76.9 µM
COc1ccccc1-c1nnc(N(C)C(=O)C2CCCO2)s1 (stereo not drawn) > 76.9 µM
O=C(NC1CC2CCC(C1)N2C(=O)NC1CCCCC1)NC12CC3CC(CC(C3)C1)C2 (stereo not drawn) > 76.9 µM
COc1ccc2nc3oc(C(=O)NCc4cccs4)cc3cc2c1 > 76.9 µM
COCc1[nH]nc2c1C(c1ccc(OC)c(OC)c1)C(C#N)=C(N)O2 (stereo not drawn) > 76.9 µM
CCCCn1c(=O)[nH]c(=O)c2c1nc(COc1ccc(C#N)cc1)n2CCC > 76.9 µM
CCOc1cccc(/C(O)=C2/C(=O)C(=O)N(CCOC)C2c2ccc(C)o2)c1 (stereo not drawn) > 76.9 µM
Cc1nn(Cc2ccccc2Cl)c(C)c1C(=O)NCc1ccco1 > 76.9 µM
COc1ccc(Cl)cc1NC(=O)C1CCCN(c2cc(C)nc3ncnn23)C1 (stereo not drawn) > 76.9 µM
Cc1ccc2c(c1)C(O)(CC(=O)c1ccc3c(c1)OCO3)C(=O)N2 (stereo not drawn) > 76.9 µM
O=C(NC1CCCCC1)c1cc(-c2ccco2)on1 > 76.9 µM
COCCCNC(=O)c1cc2c(=O)n3cccc(C)c3nc2n(C(C)C)c1=N > 76.9 µM
CC1(C)CC(c2csc(N)n2)CCO1 (stereo not drawn) > 76.9 µM
COc1c(C(=O)N2CCCC2)ccc2ccccc12 > 76.9 µM
CCN1CCN(/C=N/c2nc3c(s2)CCCC3)CC1 > 76.9 µM
